Reference: PubChem BioAssay AID686979 (National Center for Advancing Translational Sciences (NCATS), 2013)
The whole screen tested about 420,000 compounds, of which about 50,000 (12%) were called active. The shares of active, inactive and inconclusive entries below differ from those in the screen. Calls follow the shape of the dose curve; as a rule, active = well fitted inhibition curve with a large enough effect; inconclusive = small, poorly fitted or top-dose-only effect; inactive = flat fitted curve, though single readings scatter. Potencies of inconclusive entries are left out as doubtful fits.

Test: qHTS for Inhibitors of human tyrosyl-DNA phosphodiesterase 1 (TDP1): qHTS in cells in presence of CPT; also: nearly all actives have a fitted effect of over 55% in size
Conditions: chicken DT40 Tdp1-/-;hTDP1 cells + 20 nM CPT, ATP luminescence, 48 h; activity change, negative = growth inhibition: at 46.2 µM (top of the series) unless noted
How it was run: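 Chicken DT40 Tdp1-/- cells complemented with human TDP1, 400 cells/well, exposed to compounds plus 20 nM camptothecin for at least 48 h at 37 C; viability read as ATP content by CellTiter-Glo luminescence.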
% is scaled to controls: 0 for no effect and ±100 for the full control effect; potency is read from the fitted curve at half-maximal effect; tags tell the direction and shape of the fitted curve.

Row | SMILES | Potency | activity change, negative = growth inhibition
1 | Cc1ccc(S(=O)(=O)N2[C@@H](CO)CO[C@H]2CC(=O)c2cccc3ccccc23)cc1 | inconclusive [inhibitor, single point] | 
2 | COc1ccc(N2CCN(c3ccc(C(N)=O)cc3[N+](=O)[O-])CC2)cc1 | inconclusive [inhibitor, partial curve, poor fit] | 
3 | COc1ccc(OC)c(NC(=O)C2Cc3ccccc3CN2S(=O)(=O)c2ccc(F)cc2)c1 (centres undefined) | inconclusive [inhibitor, single point] | 
4 | O=C(CCc1ccccc1)Nc1cc(S(=O)(=O)N2CCOCC2)ccc1N1CCCC1 |  | inactive: -7.41%
5 | c1ccc(C(c2ccccc2)N2CCN(Cc3nnnn3C3CCCC3)CC2)cc1 | inconclusive [inhibitor, single point] | 
6 | C1=C(c2cn(-c3nc4ccccc4s3)nn2)CCCC1 | inconclusive [inhibitor, single point] | 
7 | O=C(COc1ccccc1)Nc1ccc(N2CCN(C(=O)c3ccco3)CC2)cc1 |  | inactive: -0.338%
8 | CCOC(=O)C1CCCN(C(=O)c2cc(-c3ccc(F)cc3)nc3ccccc23)C1 (centres undefined) | inconclusive [inhibitor, single point] | 
9 | Cc1cc(C)n(-c2nc3c(c(=O)[nH]c(=O)n3C)n2Cc2ccccc2)n1 |  | inactive: -6.53%
10 | Cc1ccc(-n2ncc3c(NC(C)c4ccccc4)ncnc32)cc1 (centres undefined) | inconclusive [inhibitor, single point] | 
11 | CC(C)C(C)(C#N)NC(=O)CSc1nnc(-c2ccncc2)n1Cc1ccccc1 (centres undefined) | inconclusive [inhibitor, partial curve] | 
12 | COc1cc(/C=N/NC(=O)c2cccs2)ccc1OCc1ccccc1 |  | inactive: 1.55%
13 | Nc1nc(NCc2ccccc2)nc(Nc2cccc(F)c2)c1[N+](=O)[O-] |  | inactive: 0.863%
14 | O=C(OCc1ccc(C(=O)c2ccccc2)cc1)c1cccc(-c2nnc(-c3ccccc3)o2)c1 | active: 15.8 µM | 
15 | Cc1ccc2oc(=O)cc(/C=C/c3ccccc3)c2c1 | inconclusive [inhibitor, single point] | 
16 | Cc1cc(-c2cn3ccccc3n2)c(C)n1-c1ccccc1 |  | inconclusive: -30.4% [inhibitor]
17 | CCc1ccc(CNC(=O)c2cc3n(n2)CCCN(Cc2ccccc2)C3=O)cc1 | active: 16.4 µM | 
18 | CCc1c(C)sc(NC(=O)C2CCCCC2C(=O)O)c1C(N)=O (centres undefined) | inconclusive [inhibitor, single point] | 
19 | COc1ccc(-c2oc3cccnc3c2-c2ccc(OC)nc2)cc1 | inconclusive [inhibitor, single point] | 
20 | C=CCSc1nc2ccccc2c(=O)n1C1CCOC(C)(C)C1 (centres undefined) | active: 16.4 µM | 
21 | Cc1c(C)c2ccc(OCC(=O)Nc3ccccn3)c(C)c2oc1=O | inconclusive [inhibitor, single point] | 
22 | O=C(N=Nc1c(O)[nH]c2ccc(Br)cc12)c1ccccc1-n1cccc1 | active: 4.61 µM | 
23 | CC(NC(=O)CSc1nnc2n1CCCCC2)c1ccccc1Cl (centres undefined) |  | inactive: 1.69%

Row | SMILES | Potency | activity change, negative = growth inhibition
24 | O=C(c1cc(COc2ccc(F)cc2Cl)on1)N(Cc1ccncc1)CC1CCCO1 (centres undefined) | inconclusive [inhibitor, single point] | 
25 | CC(O)c1cccc(-c2ccc(CN3C[C@]4(CO)O[C@@H](CO)C[C@@H]4S3(=O)=O)cc2)c1 (some centres undefined) | inconclusive [inhibitor, single point] | 
26 | CCOc1ccccc1-n1c(SCC(=O)Nc2ccccc2C(=O)O)nc2ccccc2c1=O | inconclusive [inhibitor, single point] | 
27 | O=C(Nc1cccc([N+](=O)[O-])c1)C1C2/C=C\CCCCC21 (centres undefined) | inconclusive [inhibitor, single point] | 
28 | O=C(NC1CCCCCC1)C1CCN(c2nc3ccccc3o2)CC1 | inconclusive [inhibitor, single point] | 
29 | C(=C\c1ccnc2ccccc12)/c1ccc(N2CCOCC2)cc1 | active: 1.78 µM | 
30 | CCCNC(=O)c1ccc(COc2ccc(CCC)cc2OC)o1 | inconclusive [inhibitor, partial curve] | 
31 | COC(=O)c1cc(COc2ccc3c(c2)oc(=O)c2ccccc23)c(C)o1 | inconclusive [inhibitor, partial curve] | 
32 | COc1ccc2c(c1)c(C(=O)N/N=C/c1cccc(O)c1)c(C)n2C | active: 18.4 µM | 
33 | COC(=O)c1cccc(NC2=NS(=O)(=O)c3ccccc32)c1 | inconclusive [inhibitor, single point] | 
34 | Cc1cc(Cl)ccc1NC(=O)Cc1ccc(NC(=O)N2CCCCc3ccccc32)cc1 | inconclusive [inhibitor, single point] | 
35 | CCOc1ccc(C(=O)NC(=S)Nc2ncccc2C)cc1[N+](=O)[O-] | inconclusive [inhibitor, single point] | 
36 | Cc1ccc(S(=O)(=O)CC(=O)N2CCN(c3ccc([N+](=O)[O-])cc3)CC2)cc1 | active: 13 µM | 
37 | COC(=O)c1cccc(S(=O)(=O)N(Cc2ccco2)Cc2cc3cc(OC)ccc3[nH]c2=O)c1 | active: 29.1 µM | 
38 | C[n+]1ccc(/C=C/c2cc[n+](C)c3ccccc23)c2ccccc21 | active: 0.1 µM | 
39 | COc1cc2oc3cc(C#Cc4ccc(N)cc4)ccc3c(=O)c2cc1OC | active: 16.4 µM | 
40 | COc1ccc(Cl)cc1-c1cc(C(=O)NCc2cccc(C(F)(F)F)c2)[nH]n1 | active: 7.31 µM | 
41 | O=C(Nc1ccc(N2CCOCC2)c(S(=O)(=O)Nc2ccccc2Cl)c1)c1ccc(=O)[nH]n1 | inconclusive [inhibitor, partial curve] | 
42 | CCC1CN(C(=O)N2CCC(C(=O)Nc3ccccc3OC)CC2)c2ccccc2O1 (centres undefined) | active: 18.4 µM | 
43 | O=C(CCNc1n[nH]c(=O)[nH]c1=O)N1CCOCC1 |  | inactive: 2.64%
44 | C/C(=N\N(C)C)c1ccc(OCCOc2ccc([N+](=O)[O-])cc2)cc1 | inconclusive [inhibitor, single point] | 
45 | COc1ccc2oc(C(=O)Nc3ccccn3)c(C)c2c1 | inconclusive [inhibitor, single point] | 
46 | CCC1CCCCN1S(=O)(=O)c1ccc(S(=O)(=O)N(Cc2ccccn2)CC2CCCO2)cc1 (centres undefined) | active: 23.1 µM | 

Row | SMILES | Potency | activity change, negative = growth inhibition
47 | CCN(CC(=O)Nc1c(Cl)cccc1Cl)C(=O)C1CCN(c2ncnc3sc(C)c(C)c23)CC1 |  | inactive: -13.3%
48 | COc1ccc(Oc2ccc(C(F)(F)F)cc2NC(=O)c2ccc(OC)cc2)cc1 | inconclusive [inhibitor, single point] | 
49 | CC(=O)N1CCSc2ccc(S(=O)(=O)Nc3cccc(C)c3)cc21 | active: 18.4 µM | 
50 | COc1cc(/C=C2/SC(=Nc3ccc(O)cc3)NC2=O)cc(OC)c1O | active: 16.4 µM | 
51 | CCN1C(C)=C(C)S/C1=C1\SC(=S)N(C2CCCCC2)C1=O | inconclusive [inhibitor, single point] | 
52 | CCOC(=O)c1ccc(N2C(=O)[C@@H](c3ccccc3)[C@H]2c2ccccc2)cc1 | inconclusive [inhibitor, single point] | 
53 | CCN1C(=O)[C@H]2[C@@H](c3ccc(C(F)(F)F)cc3)N[C@]3(CCCN(Cc4ccc(Cl)cc4)C3=O)[C@H]2C1=O | active: 18.4 µM | 
54 | CCCCC[C@@H](/C=C/C1C(=O)C=C[C@H]1C/C=C\CCCC(=O)O)OC(C)=O (some centres undefined) | active: 20.6 µM | 
55 | Nc1nnc(CCS(=O)(=O)c2cc(Cl)ccc2Cl)s1 |  | inactive: -21.7%
56 | CC1=CC2C(C)(C)CC(=O)C[C@]2(C)CC1COc1ccc2c(c1)CC(=O)C=C2 (some centres undefined) |  | inactive: -9.68% [at 9.04 µM]
57 | CN(Cc1nnc(SCC(=O)NCCc2ccccc2)n1C)S(=O)(=O)c1ccccc1 | inconclusive [inhibitor, full curve, poor fit] | 
58 | COc1ccc(C(=O)Nc2cccc(-c3nnc(-c4ccco4)o3)c2)cc1 | active: 18.4 µM | 
59 | O=C(CNC(=O)c1ccccn1)N=Nc1c(O)[nH]c2ccccc12 | inconclusive [inhibitor, single point] | 
60 | COc1ccc(C)cc1NC(=O)C1CCCN(c2ncnc3onc(C)c23)C1 (centres undefined) | inconclusive [inhibitor, single point] | 
61 | Cc1cccc(C(=O)Nc2ccnc(-c3ccncc3)n2)c1 | inconclusive [inhibitor, single point] | 
62 | CC(=O)Oc1cc(OC(C)=O)c2c(=O)c(-c3ccc4c(c3)OCCCO4)c(C)oc2c1 | inconclusive [inhibitor, partial curve, poor fit] | 
63 | O=C(Cc1ccc(NC(=O)C2CCCN(C(=O)C3CCCC3)C2)cc1)Nc1cccc(C(=O)N2CCCC2)c1 (centres undefined) | inconclusive [inhibitor, single point] | 
64 | O=C(Nc1ccc2c3c(cccc13)CC2)c1ccccc1 | inconclusive [inhibitor, single point] | 
65 | Cc1ccc(C)c(N2CCN(C(=S)Nc3ccc4nc(N5CCOCC5)cc(C)c4c3)CC2)c1 |  | inactive: -11.5%
66 | COc1cccc(C(=O)NCc2ccc3c(c2)OCO3)c1OC |  | inactive: 15.2%
67 | COc1cc(OC)nc(Nc2nc(C(N)c3ccccc3)cs2)n1 (centres undefined) | inconclusive [inhibitor, single point] | 
68 | COc1ccc(C(C#N)CC(=O)c2ccc(OC)c(OCc3ccccc3)c2)cc1OC (centres undefined) | active: 14.6 µM | 
69 | O=[N+]([O-])c1ccccc1/C=C/C=N/Nc1ccc(S(=O)(=O)Nc2ccc(Cl)cc2)cc1[N+](=O)[O-] | active: 16.4 µM | 
